For orientation: IC50 means the point on the concentration scale where inhibition reaches its midpoint.

Molecules are shown by their SMILES. Counter-ions that a name gives are not always drawn.

The subject of this assay is MLKL phosphorylation, HT29-L23 human colorectal adenocarcinoma cells. As to the kind of experiment: cells. The note with it: read-out: pMLKL HCS Cell Assay (IC50, uM).
In the case of `Cc1ccc(-c2cc(C(F)(F)F)c3c(N)ncnn23)cc1C(=O)N[C@@H]1CN(C(=O)CC(C)(O)C(F)(F)F)C[C@@H]1F` (stereo partly drawn) [Example 995, 5-[4-amino-5-(trifluoromethyl)pyrrolo[2,1-f][1,2,4]triazin-7-yl]-N-[(3R,4S)-4-fluoro-1-(4,4,4-trifluoro-3-hydroxy-3-methylbutanoyl)pyrrolidin-3-yl]-2-methylbenzamide], the IC50 is 0.0024 µM.
With `Cc1cc(F)c(-c2cc(C(F)(F)F)c3c(N)ncnn23)cc1C(=O)N[C@@H]1CN(C(=O)c2ccncc2Cl)C[C@@H]1F` [Example 838, 5-[4-amino-5-(trifluoromethyl)pyrrolo[2,1-f][1,2,4]triazin-7-yl]-N-[(3R,4S)-1-(3-chloropyridine-4-carbonyl)-4-fluoropyrrolidin-3-yl]-4-fluoro-2-methylbenzamide] the figure was 0.017 µM; with `COc1ncc(-c2cc(C(F)(F)F)c3c(N)ncnn23)cc1C(=O)NC1CN(C(C)c2cnc(C)s2)C[C@@H]1F` (stereo partly drawn) [Example 1400, 5-[4-amino-5-(trifluoromethyl)-pyrrolo[2,1-f][1,2,4]triazin-7-yl]-N-[(3R,4S)-4-fluoro-1-[1-(2-methyl-1,3-thiazol-5-yl)-ethyl]pyrrolidin-3-yl]-2-methoxypyridine-3-carbox-amide], 0.0041 µM; with `COc1ncc(-c2cc(C(F)(F)F)c3c(N)ncnn23)cc1C(=O)N[C@@H]1CN(C(=O)CC(C)C)C[C@@H]1F` [Example 335, 5-[4-amino-5-(trifluoromethyl)pyrrolo[2,1-f][1,2,4]triazin-7-yl]-N-[(3R,4S)-4-fluoro-1-(3-methylbutanoyl)pyrrolidin-3-yl]-2-methoxypyridine-3-carboxamide], 0.009 µM.
With `COc1ncc(-c2cc(C(F)(F)F)c3c(N)ncnn23)cc1C(=O)N[C@@H]1CN(C(=O)CC(C)C(F)(F)F)C[C@@H]1F` (stereo partly drawn) [Example 1221, 5-[4-amino-5-(trifluoromethyl)pyrrolo[2,1-f][1,2,4]triazin-7-yl]-N-[(3R,4S)-4-fluoro-1-(4,4,4-trifluoro-3-methylbutanoyl)pyrrolidin-3-yl]-2-methoxypyridine-3-carboxamide] the figure was 0.0039 µM; with `COc1ncc(-c2cc(C(F)(F)F)c3c(N)ncnn23)cc1C(=O)N[C@@H]1CN(C(=O)N2CCCC2)C[C@@H]1F` [Example 333, 5-[4-amino-5-(trifluoromethyl)pyrrolo[2,1-f][1,2,4]triazin-7-yl]-N-[(3R,4S)-4-fluoro-1-(pyrrolidine-1-carbonyl)pyrrolidin-3-yl]-2-methoxypyridine-3-carboxamide, TFA], 0.039 µM; with `COc1ncc(-c2cc(C(F)(F)F)c3c(N)ncnn23)cc1C(=O)N[C@H]1CCN(C(=O)C2CCCCC2)C1` [Example 263], 0.102 µM.
With `COc1ncc(-c2c(C#N)cc3c(N)ncnn23)cc1C(=O)N[C@@H]1CN(C(=O)C2CCC(F)(F)C2)C[C@@H]1F` (stereo partly drawn) [Example 553, 5-(4-amino-6-cyanopyrrolo[2,1-f][1,2,4]triazin-7-yl)-N-((3R,4S)-1-(3,3-difluorocyclopentane-1-carbonyl)-4-fluoropyrrolidin-3-yl)-2-methoxynicotinamide], the IC50 was determined as 0.943 µM.
With `Cc1cc(F)c(-c2cc(C(F)(F)F)c3c(N)ncnn23)cc1C(=O)N[C@@H]1CN(C(=O)c2ccc(F)cc2)C[C@@H]1F` [Example 792, 5-[4-amino-5-(trifluoromethyl)pyrrolo[2,1-f][1,2,4]triazin-7-yl]-4-fluoro-N-[(3R,4S)-4-fluoro-1-(4-fluorobenzoyl)pyrrolidin-3-yl]-2-methylbenzamide] the figure was 0.0062 µM.
On to `Nc1ncnn2c(-c3ccc(F)c(C(=O)N[C@@H]4CN(C(=O)C5CC(F)(F)C5)C[C@@H]4F)c3)cc(C(F)(F)F)c12` [Example 254, 5-[4-amino-5-(trifluoromethyl)pyrrolo[2,1-f][1,2,4]triazin-7-yl]-N-[(3R,4S)-1-(3,3-difluorocyclobutanecarbonyl)-4-fluoropyrrolidin-3-yl]-2-fluorobenzamide], for which the IC50 was 0.038 µM.
With `COc1ncc(-c2cc(CN3CCC(C(F)(F)F)CC3)c3c(N)ncnn23)cc1C(=O)N[C@@H]1CN(C(=O)C2CC2(F)F)C[C@@H]1F` (stereo partly drawn) [Example 1627, 5-(4-amino-5-{[4-(trifluoromethyl)piperidin-1-yl]methyl}pyrrolo[2,1-f][1,2,4]triazin-7-yl)-N-[(3R,4S)-1-(2,2-difluorocyclopropanecarbonyl)-4-fluoropyrrolidin-3-yl]-2-methoxypyridine-3-carboxamide] the figure was 0.0086 µM; with `COc1ncc(-c2cc(CN3CCC(F)(F)CC3)c3c(N)ncnn23)cc1C(=O)N[C@@H]1CN(C(=O)OCC(F)(F)C(F)F)C[C@@H]1F` [Example 1520, 2,2,3,3-tetrafluoropropyl (3R,4S)-3-(5-{4-amino-5-[(4,4-difluoropiperidin-1-yl)methyl]pyrrolo[2,1-f][1,2,4]triazin-7-yl}-2-methoxypyridine-3-amido)-4-fluoropyrrolidine-1-carboxylate], 0.0033 µM; with `Cc1nc(C(=O)N2C[C@H](F)[C@H](NC(=O)c3cc(-c4cc(C(F)(F)F)c5c(N)ncnn45)ccc3C)C2)co1` [Example 1040, 5-[4-amino-5-(trifluoromethyl)pyrrolo[2,1-f][1,2,4]triazin-7-yl]-N-[(3R,4S)-4-fluoro-1-(2-methyl-1,3-oxazole-4-carbonyl)pyrrolidin-3-yl]-2-methylbenzamide], 0.058 µM.
With `COc1ncc(-c2cc(C(F)(F)F)c3c(N)ncnn23)cc1C(=O)N[C@@H]1CN(C(=O)OC2CC(F)(F)C2(F)F)C[C@@H]1F` (stereo partly drawn) [Example 1417, 2,2,3,3-Tetrafluorocyclobutyl (3R,4S)-3-(5-(4-amino-5-(trifluoromethyl)pyrrolo[2,1-f][1,2,4]triazin-7-yl)-2-methoxynicotinamido)-4-fluoropyrrolidine-1-carboxylate] the figure was 0.0049 µM; with `CCC(O)(C(=O)N1C[C@H](F)[C@H](NC(=O)c2cc(F)cc(-c3cc(C(F)(F)F)c4c(N)ncnn34)c2)C1)C(F)(F)F` (stereo partly drawn) [Example 1316, 3-[4-amino-5-(trifluoromethyl)pyrrolo-[2,1-f][1,2,4]triazin-7-yl]-5-fluoro-N-[(3R,4S)-4-fluoro-1-[2-hydroxy-2-(trifluoromethyl)butanoyl]pyrrolidin-3-yl]benzamide], 0.0068 µM.
With `Nc1ncnn2c(-c3ccc(Cl)c(C(=O)N[C@@H]4CN(C(=O)c5c(F)cncc5F)C[C@@H]4F)c3)cc(C(F)(F)F)c12` [Example 955, 5-[4-amino-5-(trifluoromethyl)pyrrolo[2,1-f][1,2,4]triazin-7-yl]-2-chloro-N-[(3R,4S)-1-(3,5-difluoropyridine-4-carbonyl)-4-fluoropyrrolidin-3-yl]benzamide] the figure was 0.022 µM; with `COc1ncc(-c2cc(CN3CCC(F)(F)CC3)c3c(N)ncnn23)cc1C(=O)N[C@@H]1CN(C(=O)c2ccc(Cl)cc2)C[C@@H]1F` [Example 1238, 5-{4-amino-5-[(4,4-difluoropiperidin-1-yl)methyl]pyrrolo[2,1-f][1,2,4]triazin-7-yl}-N-[(3R,4S)-1-(4-chlorobenzoyl)-4-fluoropyrrolidin-3-yl]-2-methoxypyridine-3-carboxamide], 0.013 µM.
For the compound `Cc1ccc(-c2cc(C(F)(F)F)c3c(N)ncnn23)cc1C(=O)N[C@@H]1CN(C(=O)CC(C(F)(F)F)C(F)(F)F)C[C@@H]1F` [Example 996, 5-[4-amino-5-(trifluoromethyl)pyrrolo[2,1-f][1,2,4]triazin-7-yl]-N-[(3R,4S)-4-fluoro-1-[4,4,4-trifluoro-3-(trifluoromethyl)butanoyl]pyrrolidin-3-yl]-2-methylbenzamide], the IC50 came out at 0.001 µM.
As for `COc1ncc(-c2cc(C(F)(F)F)c3c(N)ncnn23)cc1C(=O)NC1CN(Cc2ccc(C)cc2)CC1F` (racemic) [Example 233, 5-[4-amino-5-(trifluoromethyl)pyrrolo[2,1-f][1,2,4]triazin-7-yl]-N-{4-fluoro-1-[(4-methylphenyl)methyl]pyrrolidin-3-yl}-2-methoxypyridine-3-carboxamide], the IC50 was 0.03 µM.
With `COc1ncc(-c2cc(C(F)(F)F)c3c(N)ncnn23)cc1C(=O)N1CCCC(Cc2ccc(Cl)cc2)C1` (stereo not drawn) [Example 132, 7-(5-{3-[(4-chlorophenyl)methyl]piperidine-1-carbonyl}-6-methoxypyridin-3-yl)-5-(trifluoromethyl)pyrrolo[2,1-f][1,2,4]triazin-4-amine] the figure was 0.075 µM; with `COc1cc(C(=O)N[C@@H]2CN(C(=O)CC(C)C)C[C@@H]2F)cc(-c2cc(C(F)(F)F)c3c(N)ncnn23)c1` [Example 589, 3-[4-amino-5-(trifluoromethyl)pyrrolo[2,1-f][1,2,4]triazin-7-yl]-N-[(3R,4S)-4-fluoro-1-(3-methylbutanoyl)pyrrolidin-3-yl]-5-methoxybenzamide], 0.011 µM; with `COc1ncc(-c2cc(C(F)(F)F)c3c(N)ncnn23)cc1C(=O)N[C@@H]1CN(C(=O)OC(C)C(C)C)C[C@@H]1F` (stereo partly drawn) [Example 1428, 3-methylbutan-2-yl (3R,4S)-3-{5-[4-amino-5-(trifluoromethyl)pyrrolo[2,1-f][1,2,4]triazin-7-yl]-2-methoxypyridine-3-amido}-4-fluoropyrrolidine-1-carboxylate], 0.0029 µM.
As to `COCc1cc(-c2cnc(OC)c(C(=O)N[C@@H]3CN(C(=O)C4CC(F)(F)C4)C[C@@H]3F)c2)n2ncnc(N)c12` [Example 492, 5-[4-amino-5-(methoxymethyl)pyrrolo[2,1-f][1,2,4]triazin-7-yl]-N-[(3R,4S)-1-(3,3-difluorocyclobutanecarbonyl)-4-fluoropyrrolidin-3-yl]-2-methoxypyridine-3-carboxamide], the IC50 was determined as 0.0067 µM.
Consider `COc1ncc(-c2cc(C(F)(F)F)c3c(N)ncnn23)cc1C(=O)N[C@H]1CCN(C(=O)c2ccc(C)cc2)C1` [Example 12, 5-[4-amino-5-(trifluoromethyl)pyrrolo[2,1-f][1,2,4]triazin-7-yl]-2-methoxy-N-[(3S)-1-(4-methylbenzoyl)pyrrolidin-3-yl]pyridine-3-carboxamide], for which the 50% inhibitory concentration (IC50) is 0.401 µM.

The values above are taken from patent US11618753B2 (priority 2018, dated 2023).
